Each structure is given as a SMILES string.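 Compound exposure: 48 hours, 5 concentrations, 96-well plates. GI50 marks 50% less growth.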 Activity calls are given as the source filed them. Cut-off read from the data, not from the text of the source: active = GI50 up to about 1.1 µM and inactive = higher. Bounds are passed on as bounds.

The experiment has as its system NCI-H322M. Description: NCI-60 cell line screen, 48 h.
As to `Oc1ccccc1C(c1cc2c(cc1O)OCO2)N1CCOCC1` (stereo unspecified), the GI50 is inactive: 42.6 µM.
As for `OC1CSc2nc3ccccc3n2C1` (stereo unspecified), the figure is inactive: > 100 µM; as for `COc1ccc2c(=O)cc(-c3ccncc3)oc2c1OC`, inactive: 29.7 µM; as for `O=C1/C(=C/c2ccccc2)CN(C(=O)CCN2CCOCC2)C/C1=C\c1ccccc1`, inactive: 7.31 µM.
For the molecule `N=C(N)Nc1ccc(-c2ccc(NC(=N)N)cc2)cc1`, the GI50 is inactive: 48.2 µM.
For `CC(C)(C)OC(=O)NC1CCC(C(C)(C)C)CC1` (stereo unspecified), the GI50 is inactive: > 100 µM.
With `Nc1c2ccccc2nc2ccc3c(=O)cc(-c4ccccc4)oc3c12` the figure was active: 1.02 µM; with `COc1ccc(OC)c2sc(N3C(=O)/C(=C/Cc4ccco4)N=C3c3ccccc3)nc12`, inactive: > 100 µM; with `CCOc1ccccc1NC(=O)CSc1nnc(Cc2ccccc2)o1`, inactive: > 100 µM.
For `CC(C)OC(=O)[C@H]1ON2O[C@H](O[C@@H]3CCCC[C@H]3c3ccccc3)C([Si](C)(C)c3ccccc3)[C@H]3OC(=O)[C@@H]1C32` (stereo partly specified), the GI50 was inactive: > 100 µM.
Turning to `N#Cc1cc([N+](=O)[O-])ccc1NC(=O)/C(=N/N)C(C(=O)c1ccc(Cl)c(Cl)c1)C1OC(=O)c2ccccc21` (stereo unspecified), the GI50 was inactive: 58.7 µM.
For `CCCN(CCC)C1CCc2c(ccc3cc[nH]c23)C1` (stereo unspecified), the GI50 is inactive: > 100 µM.
As to `CCOC(=O)c1[nH]c2cccc3c2c1CC[C@H](NC(=O)C(F)(F)F)C3=O`, the GI50 is inactive: 24.5 µM.
Take `CC1(C)N=[N+]([O-])C1(C)C`: the GI50 is inactive: > 100 µM.
`CC(=O)NNc1nc(C)c(C(/C=C/c2ccc(Cl)cc2)=N/NC(=O)C[N+](C)(C)C)s1`: the GI50 is inactive: > 100 µM.
With `O=C(/C=C/c1ccc2c(c1)OCO2)Cc1nc2ncccc2[nH]c1=O` the figure was inactive: > 100 µM; with `CC(=O)OC1[C@@H](OC(C)=O)CN(OCc2ccccc2)C[C@H]1OC(C)=O` (stereo partly specified), inactive: > 100 µM; with `O=c1c2ccccc2nc(-c2ccccc2)n1NC(=S)Nc1ccc(Cl)cc1`, inactive: > 100 µM.
Turning to `CC12CC3C(CC1SCC(=O)O2)C3(C)C` (stereo unspecified), the GI50 is inactive: > 100 µM.
Take `CC(C)NC(=O)OCc1c(COC(=O)NC(C)C)n(C)c2c1ccc1cc(Cl)c(Cl)cc12`: the GI50 is inactive: 13.8 µM.
`Cc1[nH]c2ccccc2c1C1Cc2ccccc2N1C(=O)/C=C/C(=O)O` (stereo unspecified): the GI50 was inactive: > 100 µM.
As to `OC12c3ccccc3C1(N1CCOCC1)CCCCC21OCCCO1` (stereo unspecified), the GI50 is inactive: > 100 µM.
As for `Nc1ccc2c(O)cc(O)nc2n1`, the GI50 is inactive: > 100 µM.
For `NNC(=O)c1ccccc1NC(=O)/C(=C/c1ccccc1)NC(=O)c1ccccc1`, the GI50 was inactive: > 100 µM.
As for `CN(C)C(=O)NC(=S)N(C)C`, the figure is inactive: > 100 µM; as for `O=[N+]([O-])c1c2nc3n(c2cc2c1nc1n2CCC1)CCC3`, inactive: > 100 µM.
For the molecule `CCCC1=C(OC)C(=O)c2c(C)cc(Cl)nc2C1=O`, the GI50 is inactive: 14.9 µM.
As for `O=C1c2ccccc2C(=O)c2c(/C=C\N3CCCCC3)ccnc21`, the GI50 was inactive: 2.81 µM.
Take `CC(=O)NC1CONC1=O` (stereo unspecified): the GI50 is inactive: > 100 µM.
Take `Cc1cn(C2CC(O)C(Cn3nncc3Cn3ncc(=O)[nH]c3=O)O2)c(=O)[nH]c1=O` (stereo unspecified): the GI50 was inactive: > 100 µM.
For the molecule `CN1N=C(c2ccncc2)OC1c1ccccc1F` (stereo unspecified), the GI50 is inactive: > 100 µM.
`C=C1C(=O)OC2/C=C(\C)C(OC(C)=O)C3OC3C(C)(O)CC(OC(=O)/C(C)=C/C)C12` (stereo unspecified): the GI50 is inactive: 17.7 µM.
Regarding `COc1ccc(N2C(=O)CC(=O)N(C(=O)COc3ccc(OCC(=O)N4C(=O)CC(=O)N(c5ccc(OC)cc5)C4=S)cc3)C2=S)cc1`, the GI50 is inactive: 28.8 µM.
Take `C[C@@H]1CC[C@@]2(OC1)O[C@H]1C[C@H]3[C@@H]4CC[C@H]5C[C@@H](OC6OC(CO)C(OC7OC(CO)C(O)C(OC8OCC(O)C(O)C8O)C7OC7OC(CO)C(O)C(O)C7O)C(O)C6O)[C@H](O)C[C@]5(C)[C@H]4CC[C@]3(C)[C@H]1[C@@H]2C` (stereo partly specified): the GI50 is inactive: 11.9 µM.
Turning to `NC1=C(NC(=O)Cc2ccc(F)cc2)C(=O)c2ccccc2C1=O`, the GI50 was inactive: > 100 µM.
As for `CCOC(=O)c1ccc(C(=O)/C(C#N)=C2\CCCN2)[nH]1`, the figure is inactive: > 100 µM; as for `COc1ccc2cc(NC(=O)N/N=C\c3ccc(Cl)cc3)ccc2c1`, inactive: > 100 µM.
As for `N=C(N)N/N=C/c1oc(-c2ccc(S(=O)(=O)O)o2)c(-c2ccc(S(=O)(=O)O)o2)c1[N+](=O)[O-]`, the figure is inactive: > 100 µM.
On to `CC(C)C[C@@H](NC(=O)[C@@H](Cc1cccc2ccccc12)NC(=O)N1CCOCC1)B(O)O`, for which the GI50 is inactive: > 100 µM.
As for `CCn1c(-c2ccc(/N=N/Nc3ccc(-c4n[nH]c(=S)n4CC)cc3)cc2)n[nH]c1=S`, the GI50 is inactive: 2.58 µM.
Take `On1c(-c2ccccc2)c(-c2ccccc2N2CCCC2)c2ccccc21`: the GI50 is inactive: > 100 µM.
Consider `COc1ccc(N(CN2C(=O)CCC2C(=O)O)C(C)=O)cc1` (stereo unspecified), for which the GI50 was inactive: > 100 µM.
For `COC(=O)CNS(=O)(=O)c1ccc(-c2c3nc(c(-c4ccc(S(=O)(=O)NCC(=O)OC)cc4)c4ccc([nH]4)c(-c4ccc(S(=O)(=O)NCC(=O)OC)cc4)c4nc(c(-c5ccc(S(=O)(=O)NCC(=O)OC)cc5)c5ccc2[nH]5)C=C4)C=C3)cc1`, the GI50 is inactive: > 100 µM.
As for `CCOC(=O)N1Cc2ccoc2C1`, the GI50 was inactive: > 100 µM.
Regarding `O=C(c1ccccc1)c1c(CC(O)c2ccccc2)n(C(=O)c2ccccc2)c2ccccc12` (stereo unspecified), the GI50 was inactive: 71.6 µM.
With `CCOc1ccccc1N1C(=O)C(=O)C(c2nc3ccccc3o2)C(=O)C1=O`, the GI50 was inactive: 78.3 µM.
As for `Cc1nc2ccc(S(=O)(=O)Nc3ccccc3Cl)cc2c(=O)n1NC(=O)CNc1ccccc1Cl`, the figure is inactive: > 100 µM.
As to `Cc1ccc(C(=O)CC2(O)C(=O)Nc3c(C)cc(Cl)cc32)cc1` (stereo unspecified), the GI50 is inactive: > 100 µM.
With `CCOC(OCC)C(CC)[Se]c1ccccc1` (stereo unspecified), the GI50 is inactive: > 100 µM.
For the molecule `COc1cc(OC2OC(CO)C(O)C(O)C2O)c2c(c1)O[C@@H]1[C@H](O)Oc3cc(OC)c(OC)cc3[C@]1(O)C2=O` (stereo partly specified), the GI50 is inactive: > 25 µM.
With `O=C(CC1C(=O)Nc2ccccc2[S+]1[O-])Nc1ccccc1` (stereo unspecified) the figure was inactive: > 100 µM; with `Cc1cccc(NC(=O)CC#N)c1Cl`, inactive: > 100 µM; with `Cn1nc2c(c1N)Cc1c(nn(C)c1N)-c1ccccc1-2`, inactive: > 100 µM.
With `[O-][S+]1c2ccccc2N=C(c2ccc3ccccc3c2)CC1c1ccccc1F` (stereo unspecified) the figure was inactive: > 100 µM.
With `O=C(CC(O)(C(F)(F)Cl)C(F)(F)Cl)CC(O)(C(F)(F)Cl)C(F)(F)Cl`, the GI50 was inactive: 2.06 µM.
As for `OC1CC1Sc1ccccc1` (stereo unspecified), the figure is inactive: 77.4 µM; as for `COc1ccc2c(-c3ccc(OCCN(C)C)cc3)c(Oc3ccccc3)c(=O)oc2c1`, inactive: 3.85 µM.
As for `[O-]/[N+](=C\c1ccccc1)[C@H](COCc1ccccc1)c1ccccc1`, the figure is inactive: > 100 µM.
Regarding `CN(C)c1ccc(/C=c2\sc3nnc(-c4cccnc4)n3c2=O)cc1`, the GI50 was inactive: > 100 µM.
On to `CCOC(=O)C(C)NC(=O)C(C)NC(=O)C(C)NC(=O)C(C)NC(=O)C(C)NC(=O)OCc1ccccc1` (stereo unspecified), for which the GI50 is inactive: > 100 µM.
With `CCCCCC1C2C(=O)NC(=O)C1C(=O)NC2=O` (stereo unspecified) the figure was inactive: > 100 µM; with `CS(=O)(=O)NNS(=O)(=O)c1ccc(Cl)cc1`, inactive: > 100 µM.
In the case of `Cc1ccc(S(=O)(=O)c2ccc(C)cc2[N+](=O)[O-])c([N+](=O)[O-])c1`, the GI50 was inactive: > 100 µM.
On to `C[C@]12CC[C@H]3[C@@H](CC[C@]4(O)C[C@@H](O)CC[C@]34/C=N/O)[C@@]1(O)CC[C@@H]2C1=COC(=O)C1`, for which the GI50 is active: 0.206 µM.
As to `Cc1cc2c(cc1-c1cc3c(cc1C)C(C(C)C)=C(O)C(=O)/C3=C\Nc1ccccn1)/C(=C/Nc1ccccn1)C(=O)C(O)=C2C(C)C`, the GI50 is inactive: 77.6 µM.
In the case of `Cc1cc(N(CCOS(C)(=O)=O)CCOS(C)(=O)=O)ccc1C=O`, the GI50 was inactive: 2.44 µM.
With `CCOC(=O)CC1C(O)C(=O)N(C)C1c1ccccc1` (stereo unspecified) the figure was inactive: > 100 µM.
Turning to `CCN(CC)CC(O)c1ccc2ccc3ccccc3c2c1` (stereo unspecified), the GI50 was inactive: 15.4 µM.
For `CCN1N=CSC12C(=O)N(c1ccccc1)C(=O)N2c1ccccc1` (stereo unspecified), the GI50 was inactive: > 100 µM.
For `CCCc1c(C(=O)OCC)[nH]c(C(=O)CCC(=O)c2[nH]c(C(=O)OCC)c(CCC)c2C(=O)OCC)c1C(=O)OCC`, the GI50 was inactive: > 100 µM.
With `C=CCC1=C2CCCCC2CCC1=O` (stereo unspecified) the figure was inactive: > 100 µM; with `C[N+](C)(C)[BH-](Br)C(O)O` (stereo unspecified), inactive: > 100 µM.
Turning to `C=CC1C(OC2OC(CO)C(O)C(O)C2O)OC=C(C(=O)OC)C1CC=O` (stereo unspecified), the GI50 was inactive: > 100 µM.
For the molecule `CC1(Cl)C(=O)NC(=O)N([C@H]2C[C@H](O)[C@@H](CO)O2)C1N=[N+]=[N-]` (stereo partly specified), the GI50 is inactive: > 100 µM.
Consider `O=[N+]([O-])c1nccn1CCCNc1c2ccccc2[n+]([O-])c2ccccc12`, for which the GI50 was inactive: > 100 µM.
On to `COc1ccc(S(=O)(=O)Nc2ccccc2C(=O)O)cc1`, for which the GI50 is inactive: > 100 µM.
With `Cn1ncc2c(Cl)ncnc21` the figure was inactive: > 100 µM; with `CC(=O)OCCOCn1cnc2c(Cl)nc(Cl)nc21`, inactive: 25.2 µM; with `CCCCCCCCCCCCC(O)C1CCC(C(O)CCCCC(O)CCCCCC2CC(CC(C)=O)C(=O)O2)O1` (stereo unspecified), inactive: 9.1 µM.
In the case of `COc1ccc(-c2oc3cc(OC)c(OC)c(O)c3c(=O)c2OC)cc1`, the GI50 was inactive: > 100 µM.
For `CN1CC2CC(C1)c1cccc(=O)n1C2` (stereo unspecified), the GI50 is inactive: > 100 µM.

The values above are taken from ChEMBL document CHEMBL1201862, “PubChem BioAssay data set” (2004).
